B1: PhoQ; a variant is named by its letters at X, in order, P23837 (parent)
chain: MKKLLRLFFPLSLRVRFLLATAAVVLVLSLAYGMVALIGYSVSFDKTTFRLLRGESNLFYTLAKWENNKLHVELPENIDKQSPTMTLIYDENGQLLWAQRDVPWLMKMIQPDWLKSNGFHEIEADVNDTSLLLSGDHSIQQQLQEVREDDDDAEMTHSVAVNVYPATSRMPKLTIVVVDTIPVELKSSYMVWSWFIYVLSANLLLVIPLLWVAAWWSLRPIEALAKEVRELEEHNRELLNPATTRELTSLVRNLNRLLKSERERYDKYRTTLTDLTHSLKTPLXXLQXXLRSLRSEKMSVSDAEPVMLEQISRISQQIGYYLHRASMRGGTLLSRELHPVAPLLDNLTSALNKVYQRKGVNISLDISPEISFVGEQNDFVEVMGNVLDNACKYCLEFVEISARQTDEHLYIVVEDDGPGIPLSKREVIFDRGQRVDTLRPGQGVGLAVAREITEQYEGKIVAGESMLGGARMEVIFGRQHSAPKDE

Drawing on a collection of fitness landscapes (doi:10.1126/science.1257360), this text covers enrichment ratio for 84 variants.

The list shows a part of the results.

Variants of B1 are the subject of the experiment. Put plainly: enrichment ratio after two sorts for PhoP signalling (ratio (wild type AVST 3.29)); higher = more functional. Conditions: with PhoP (E. coli).
In the case of MDFK, the enrichment ratio is ≤ 0.25.
In the case of KEVE, the enrichment ratio was ≤ 0.25.
FPKE: the enrichment ratio is ≤ 0.25.
Regarding PWKW, the enrichment ratio is ≤ 0.25.
Take TWYI: the enrichment ratio is ≤ 0.25.
As for PYFN, the enrichment ratio was ≤ 0.25.
On to IKKV, for which the enrichment ratio was ≤ 0.25.
The value for PEVL was ≤ 0.25; that for GHQC was ≤ 0.25.
Take DVFR: the enrichment ratio is ≤ 0.25.
Consider IQGM, for which the enrichment ratio was ≤ 0.25.
TPGS: the enrichment ratio is ≤ 0.25.
Consider ATTH, for which the enrichment ratio was 8.31.
With EYII, the enrichment ratio was ≤ 0.25.
Consider NEQS, for which the enrichment ratio was ≤ 0.25.
In the case of PWCF, the enrichment ratio is ≤ 0.25.
HIAC: the enrichment ratio is ≤ 0.25.
For EAWW, the enrichment ratio was ≤ 0.25.
Consider IEVN, for which the enrichment ratio was ≤ 0.25.
With RCMA, the enrichment ratio is ≤ 0.25.
The value for WWVF was ≤ 0.25; that for MFDQ was ≤ 0.25.
In the case of YMGQ, the enrichment ratio is ≤ 0.25.
The value for ISIM was ≤ 0.25; that for HHTV was ≤ 0.25.
Turning to NDGQ, the enrichment ratio was ≤ 0.25.
As to VFVP, the enrichment ratio was ≤ 0.25.
On to KPWQ, for which the enrichment ratio was ≤ 0.25.
With TFAF, the enrichment ratio was ≤ 0.25.
Next, PTKA: ≤ 0.25.
Regarding QPTH, the enrichment ratio is ≤ 0.25.
Take VGPF: the enrichment ratio is ≤ 0.25.
With NNGI, the enrichment ratio was ≤ 0.25.
The value for LTSG was ≤ 0.25.
As for VNHC, the enrichment ratio was ≤ 0.25.
The value for DRHT was ≤ 0.25; that for SNPE was ≤ 0.25.
The value for VAAV was ≤ 0.25.
On to PTRP, for which the enrichment ratio is ≤ 0.25.
Take ARIM: the enrichment ratio was 1.4.
Turning to YHPT, the enrichment ratio is ≤ 0.25.
In the case of TWFR, the enrichment ratio was ≤ 0.25.
For the variant PIWR, the enrichment ratio was ≤ 0.25.
Turning to TCST, the enrichment ratio worked out at 24.9.
Regarding IWVI, the enrichment ratio is ≤ 0.25.
In the case of ASNR, the enrichment ratio was ≤ 0.25.
The value for YQRI was ≤ 0.25; that for DPSM was ≤ 0.25; that for KIRA was 2.25.
As to TRTQ, the enrichment ratio was ≤ 0.25.
For GVIR, the enrichment ratio was ≤ 0.25.
Turning to RVYS, the enrichment ratio was ≤ 0.25.
Consider IEVI, for which the enrichment ratio is ≤ 0.25.
Turning to LDPA, the enrichment ratio is ≤ 0.25.
As for RRNT, the enrichment ratio was ≤ 0.25.
As to PMAW, the enrichment ratio was ≤ 0.25.
With NWPR, the enrichment ratio is ≤ 0.25.
With FLEV, the enrichment ratio is ≤ 0.25.
For NIRY, the enrichment ratio was ≤ 0.25.
Consider NYIF, for which the enrichment ratio is ≤ 0.25.
Take GHLS: the enrichment ratio is ≤ 0.25.
As for LVIM, the enrichment ratio was ≤ 0.25.
In the case of QYGI, the enrichment ratio is ≤ 0.25.
The value for PIPA was ≤ 0.25; that for SDKL was ≤ 0.25.
With VAYR, the enrichment ratio is ≤ 0.25.
The value for RVEH was ≤ 0.25; that for NWRG was ≤ 0.25; that for DVCN was ≤ 0.25.
Turning to KQNC, the enrichment ratio was ≤ 0.25.
Consider WSVA, for which the enrichment ratio was ≤ 0.25.
As for PTTC, the enrichment ratio was ≤ 0.25.
Turning to ALPF, the enrichment ratio is ≤ 0.25.
For AINA, the enrichment ratio was ≤ 0.25.
For the variant PLFD, the enrichment ratio was ≤ 0.25.
The value for STPE was ≤ 0.25; that for NYAS was ≤ 0.25; that for DILC was ≤ 0.25.
Take MTMG: the enrichment ratio is ≤ 0.25.
On to LAPI, for which the enrichment ratio is ≤ 0.25.
Turning to YCYF, the enrichment ratio is ≤ 0.25.
Regarding AWLA, the enrichment ratio came out at 1.75.
As for EGIH, the enrichment ratio is ≤ 0.25.
Consider AVHH, for which the enrichment ratio was ≤ 0.25.
